# Measurements as given in PubChem BioAssay AID463173 (ICCB-Longwood Screening Facility, Harvard Medical School, 2010).
# In all, about 52,000 compounds went through this assay and about 4,300 (8.3%) were called active. No stated cut-off is given here; in the data, active means survival mostly below about 52% (no sharp cut-off); inactive means mostly above about 56%. The list shows a part of the results.
# System: DeltatarO mutant
# Assay: S. aureus survival, RN4220 and DeltatarO strains – OD600, teichoic acid synthesis inhibitors, primary screen (AID 463173)
# Details: S. aureus RN4220 wild type/DeltatarO growth, OD600, 18 h, active compounds read low, screened at 18.75 µg/mL (by protocol)
row,Structure (SMILES),survival
1,CCc1ccccc1NC(=O)c1ccc2c(SCC(=O)O)c3c(nc2c1)CCC3,inactive: 85%
2,CSc1ccc(CCNC(=O)C(C)n2nc(C)c3sc4ccccc4c3c2=O)cc1 (centres undefined),inactive: 52%
3,CCOC(=O)C1CCN(C(=O)c2ccc(NC(=O)c3nsc4ccccc34)cc2)CC1,inactive: 109%
4,CS(=O)(=O)N(CC(=O)Nc1ccc2c(c1)OCCO2)c1ccccc1,inactive: 103%
5,COc1cc(OC)c(NC(=O)c2nn(-c3ccc(C)cc3)c(=O)c3c2c2ccccc2n3C)cc1Cl,inactive: 97%
6,O=C(Nc1cccc(C(=O)N2CCN(c3cccc(Cl)c3)CC2)c1)c1nsc2ccccc12,inactive: 94%
7,COc1ccc(OC)c(Nc2ncnc3c2nc2n3CCCC2)c1,inactive: 78%
8,COCCCn1c(=N)c(C(=O)NCc2cccnc2)cc2c(=O)n3cc(C)ccc3nc21,inactive: 74%
9,C=CCN(CC=C)C(=O)C(C)N1CCN(C2CCCCC2)CC1 (centres undefined),inactive: 88%
10,CCOc1ccc(NC(=O)c2nc3nc(C)cc(C(F)F)n3n2)cc1,inactive: 60%
11,CCc1nnc(SCc2ccc(OC)cc2)c2cc3sc(C)cc3n12,inactive: 92%
12,O=C(CCn1ccc2cc(S(=O)(=O)N3CCCC3)ccc21)NCc1cccc(Cl)c1,active: 17%
13,Cc1cc(C(=O)NCc2cccc(Br)c2)c2c(C)nn(-c3ccccc3)c2n1,inactive: 108%
14,CC(=O)N1c2ccc(S(=O)(=O)NCC3CCC(C(=O)Nc4ccc(C)c(C)c4)CC3)cc2CC1C (centres undefined),inactive: 98%
15,CCn1cc(C(=O)NCCc2ccc(C)cc2)c(=O)c2cc(S(=O)(=O)N3CCc4ccccc4C3)ccc21,inactive: 67%
16,CC(C(=O)O)N1CCCC1 (centres undefined),inactive: 94%
17,O=C(Nc1c(-c2ccccc2)nc2ccccn12)c1ccccc1F,inactive: 48%
18,Cc1ccc(-c2noc(-c3cc(-c4ccc(F)cc4)n[nH]3)n2)cc1,inactive: 101%
19,Cc1cc(C)cc(NC(=O)CNS(=O)(=O)c2ccc3nc(C)sc3c2)c1,inactive: 74%
20,O=c1[nH]c2ccc(Cl)cc2c(-c2ccccc2)c1N1CCOCC1,inactive: 65%
21,CC(=O)c1ccc(N2CCN(C(=O)CCn3cnc4onc(-c5ccc(F)cc5)c4c3=O)CC2)cc1,active: -5%
22,CC(Sc1nc(-c2ccccc2)cc(C(F)(F)F)n1)C(=O)N1CCCC1 (centres undefined),inactive: 101%
23,CCOC(=O)c1ccc(NC(=O)CSc2nccn2-c2cc(C)cc(C)c2)cc1,inactive: 67%

row,Structure (SMILES),survival
1,CCOc1ccccc1NC(=O)Nc1cc2c(cc1N1CCCCC1)n(CC)c(=O)n2CC,inactive: 96%
2,O=C1CC(c2ccc(F)cc2)c2c(c3ccccc3[nH]c2=O)O1 (centres undefined),inactive: 65%
3,CCOc1ccccc1CNCc1c(C(=O)O)n(Cc2ccc(F)cc2)c2cc(C)ccc12,inactive: 85%
4,CCc1cc2c(cc3c(=O)n(CC(=O)NCc4cc(Br)ccc4OC)ncn32)s1,inactive: 111%
5,CCN(CC)S(=O)(=O)c1ccc2oc(C(=O)Nc3cc(C)ccc3OC)c(C)c2c1,inactive: 80%
6,CN1C(=O)Cc2cc(S(=O)(=O)CCC(=O)Nc3ccc(OC(F)(F)F)cc3)ccc21,inactive: 71%
7,CCC(=O)OCCn1c(=O)c2ccccc2c2ccccc2c1=O,inactive: 91%
8,Cc1ccc(S(=O)(=O)N2CCCC2C(N)=O)cc1 (centres undefined),inactive: 59%
9,Cc1ccc(NC(=O)CN2C(=O)c3ccccc3Sc3ccc(C(=O)N4CCOCC4)cc32)c(Cl)c1,active: -5%
10,CCN(C(=O)C1CCCN(c2ncnc3c2nc2n3CCCCC2)C1)c1cccc(C)c1 (centres undefined),inactive: 75%
11,Cc1ccc(NC(=O)c2ncoc2-c2ccco2)cc1Cl,inactive: 91%
12,Cc1cccc(C)c1NC(=O)Cn1c(SCC(=O)NCc2ccccc2)nc2ccccc21,inactive: 87%
13,CCOC(=O)c1[nH]c(C)c(CCC(=O)Nc2cccc(SC)c2)c1C,inactive: 67%
14,COc1ccc2cc(CNc3ccc(OC)c(OC)c3)c(=O)n(CC(=O)Nc3ccccc3F)c2c1,inactive: 120%
15,CCOc1ccc(NC(=O)C2CCN(S(=O)(=O)c3c(C)noc3/C=C/c3cccs3)CC2)cc1,inactive: 97%
16,CCOc1ccc(-c2nnc(SCC(=O)c3ccccc3)n2-c2ccccc2)cc1,inactive: 136%
17,Cn1cccc1-c1cc2n(n1)CCC(=O)N2CCCC(=O)NCc1ccc(F)cc1,inactive: 88%
18,COc1ccc(C(=O)Nc2ccc3oc(-c4ccc5ccccc5c4)nc3c2)cc1Br,inactive: 63%
19,N#CCn1c2ccc(Cl)cc2c2nc3ccccc3nc21,inactive: 108%
20,COc1cccc(C(=O)N(Cc2ccco2)c2ccccn2)c1,inactive: 97%
21,O=C(CNC(=O)c1ccccc1F)OCc1cc(=O)n2nc(C3CCCCC3)sc2n1,inactive: 98%
22,CC(C)CCNC(=O)c1ccc2c(c1)N(Cc1ccccc1F)C(=O)c1ccccc1S2(=O)=O,inactive: 76%
23,O=S(=O)(c1ccc(-c2csc(=Nc3ccc(OC(F)(F)Cl)cc3)n2CCCO)cc1)N1CCCC1,inactive: 159%

row,Structure (SMILES),survival
1,COc1ccccc1C(=O)NCC(=O)O,inactive: 76%
2,Fc1cccc(Cl)c1CNCCSc1nnnn1-c1ccccc1,inactive: 79%
3,Cc1ccc(Cl)cc1NC(=O)NCc1cccn1Cc1ccc(F)cc1,inactive: 104%
4,O=C(Nc1ccccc1O)c1cc(S(=O)(=O)N2CCCC2)ccc1Cl,inactive: 47%
5,COc1ccc2c(c1)c1c(c(=O)n(-c3ccc(OC)c(OC)c3)c(=O)n1CC(=O)N1CCCC1)n2C,inactive: 122%
6,Cc1ccc(CNC(=O)CSc2ncc(S(=O)(=O)c3ccc(C)c(Cl)c3)c(=O)[nH]2)cc1,inactive: 77%
7,Cc1ccc(NC(=O)N2CCN(c3nnc(C)c4c(C)n(-c5ccc(Cl)cc5)nc34)CC2)c(C)c1,inactive: 101%
8,COC(=O)c1ccccc1NC(=O)c1cc(C)nc2c1c(C)nn2-c1ccc(C)cc1,inactive: 75%
9,Nc1ccc(N2CCOCC2)c(N)c1,inactive: 74%
10,COc1ccc(OC)c(NC(=O)CSC2=Nc3ccccc3C3=NC(CC(=O)NCc4ccc(F)cc4)C(=O)N23)c1 (centres undefined),active: 52%
11,COc1cc(OC)c(NC(=O)n2ncc3cc(Cl)ccc32)cc1Cl,inactive: 100%
12,COc1cccc(OCC(=O)NC2CC(=O)N(c3ccc4c(c3)OCCO4)C2)c1 (centres undefined),inactive: 81%
13,COc1cc(Cl)c(C)cc1NC(=O)CSc1nc2c(c(=O)[nH]1)CCCC2,inactive: 58%
14,CCOC(=O)c1cccc(NC(=O)CC2C(=O)N(c3ccc(C)cc3)C(=O)N2Cc2cccc(OC)c2)c1 (centres undefined),inactive: 115%
15,CN(C)c1ccc(CNC(=O)c2cnc3sc(N4CCCCCC4)nn3c2=O)cc1,inactive: 102%
16,COC(=O)N1CCCc2cc(S(=O)(=O)N3CCN(c4ccccc4)CC3)ccc21,inactive: 75%
17,CCCCNC(=O)CCCn1c(=O)c2ccccc2n(Cc2c(C)cc(C)cc2C)c1=O,inactive: 90%
18,Cc1ccc(C)c(Cn2c(=O)n(CCC(=O)NCc3ccc4c(c3)OCO4)c(=O)c3sccc32)c1,inactive: 65%
19,Cc1cccc(Cc2c(C)nc3nc(SCc4ccccc4Cl)nn3c2C)c1,active: -9%
20,COc1ccc(-c2nc(C)c(CCNC(=O)c3c(F)cccc3F)s2)cc1,inactive: 84%
21,CCOc1ccc(OCC)c(NC(=O)CCc2nc3cccnc3n2Cc2cccs2)c1,inactive: 73%
22,O=C(NN1C(=O)C2C3c4ccccc4C(c4ccccc43)C2C1=O)C1CC1 (centres undefined),inactive: 104%
23,Cc1c(/C=C(\C#N)C(=O)Nc2cccc(Cl)c2)c2ccccc2n1Cc1ccccc1,inactive: 80%

row,Structure (SMILES),survival
1,Cn1c(=O)c2c(SCC(=O)NCc3ccc(F)cc3)nc(-c3ccccc3Cl)nc2n(C)c1=O,inactive: 76%
2,CC1CCN(CC(=O)Nc2ccc3ccccc3c2)CC1,inactive: 107%
3,Cc1ccc(NS(=O)(=O)c2ccc3c(c2)[C@H]2C=CC[C@H]2[C@@H](c2ccc(F)cc2)N3)cc1C,inactive: 58%
4,CCCC(c1nnnn1Cc1ccccc1)N1CCN(c2ccccc2)CC1 (centres undefined),active: 42%
5,COc1ccc(C2CC(=O)Nc3c2c(=O)n(C)c2nc4ccccc4n32)cc1 (centres undefined),inactive: 92%
6,COc1ccc(-c2noc(-c3ccc(C)cc3Cl)n2)cc1OC,inactive: 136%
7,CCOc1ccc(NC(=O)c2sc3ccccc3c2Cl)cc1,inactive: 68%
8,COc1ccc(C(=O)c2cn(Cc3cccc(C)c3)c3cc4c(cc3c2=O)OCO4)cc1,inactive: 86%
9,CCOC(=O)c1[nH]c(C)c(C(=O)NCc2cccc(OC)c2)c1C,inactive: 70%
10,CCc1ccccc1NC(=O)Cn1c(=O)n(CC(=O)NCCc2ccccc2)c(=O)c2ccccc21,inactive: 91%
11,COc1ccc(CC(=O)NCCc2csc(-c3ccc(C(F)(F)F)cc3)n2)cc1,active: -5%
12,COc1cc(Cl)c(C)cc1NC(=O)CSc1cc(-c2ccccc2)nc(C)n1,inactive: 53%
13,Cc1ccccc1C1=CCN(c2ncc(NC(=O)c3ccc(Cl)cc3)cc2C(=O)O)CC1,inactive: 95%
14,Cc1nc2nc(SCC(=O)NCCc3ccc(Cl)cc3)nn2c(C)c1Cc1ccccc1Cl,inactive: 99%
15,Cn1c(=O)[nH]c(=O)c2[nH]c(NCCO)nc21,inactive: 80%
16,Cc1nc2c(-c3ccccc3)c(C)nn2c(C)c1CCC(=O)Nc1ccccc1F,inactive: 66%
17,COc1ccccc1N1CCN(C(=O)CCn2nc(C)c(S(=O)(=O)N3CCCC3)c2C)CC1,inactive: 77%
18,Cc1ccc(NC(=O)CSc2nc3ccc(NC(=O)COc4ccc(C)cc4)cc3s2)cc1,inactive: 83%
19,O=C(Nc1nnc(C2CC(=O)N(c3ccc(Cl)cc3)C2)s1)c1ccco1 (centres undefined),inactive: 84%
20,Cc1ccc(SCc2nc(-c3ccc(C(=O)Nc4cc(C)ccc4C)cc3)oc2C)cc1,inactive: 109%
